This is an account of results in PMC5018250, “Structure of the Bacterial Sex F Pilus Reveals an Assembly of a Stoichiometric Protein-Phospholipid Complex” (Cell, 2016).

This series deals with the molecule itself. Description: cryo-EM structure; purified pED208 pili in PBS pH 7.4, vitrified; helical reconstruction (IHRSR), C5 point group symmetry, 3.6 A map; 28.2 degrees and rise 12.1 A between adjacent subunits.

B1: pED208 TraA pilin (natural protein)
chain: TDLLAGGKDDVKATFGADSFVMMCIIIAELIVGVAMYIRTKNLLILLGLVVVIVFTTVGLTFIK
notes: Stands in the pilus as a helical polymer (five-start helix, or stacked pentamer layers); also called pED208 pilin; pED208 pilus subunit
In the case of B1, the binding result is reported as “binds”.
